Source: PubChem BioAssay AID504832 (National Center for Advancing Translational Sciences (NCATS), 2011)
The whole screen tested about 310,000 compounds, of which about 18,000 (5.8%) were called active. Inconclusive results, whose numbers are uncertain, are shown with a selection of clear calls. Calls come from the whole dose curve; as a rule, active = well fitted inhibition curve with a large enough effect; inconclusive = small, poorly fitted or top-dose-only effect, or another doubt; inactive = no such curve, though single readings can be large or run the other way. No potency is given beside an inconclusive call; the fits are too rough.

assay: Primary qHTS for delayed death inhibitors of the malarial parasite plastid, 48 hour incubation; settings: P. falciparum luciferase growth in erythrocytes; series mostly up to 28.7 µM; activity change, negative = inhibition: at the top concentration
In short: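 Read-out is firefly luciferase luminescence from an integrated reporter in P. falciparum, so falling signal marks reduced parasite growth. Infected erythrocytes were at 2% hematocrit and 0.1% parasitemia (final) in Albumax-supplemented RPMI 1640.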
% is set by controls: 0 for no effect and ±100 for the full control effect; potency is the fitted concentration of half-maximal effect; tags give direction and shape of the fitted curve.

Question: With CC(c1ccc(F)cc1)n1cc(C(=O)NCCN(C)C)nn1 (stereo not drawn) as the compound, how does the “activity change, negative = inhibition” value read?
Answer: inactive: 4.27%

Question: For Cn1c(C(O)c2ccccc2)nc(Cl)c1Cl (stereo not drawn), which “activity change, negative = inhibition” value is on record?
Answer: inactive: -8.29%

Question: With CCOc1cccc(CNCCO)c1OCc1ccc(Cl)cc1 as the compound, how does the Potency read?
Answer: inconclusive [inhibitor, single point]

Question: With S=C(/N=c1/sccn1Cc1ccccc1)NC1CC1 as the compound, how does the Potency read?
Answer: inconclusive [inhibitor, single point]

Question: For CC(=O)N1CCOc2cc(S(=O)(=O)N3CCN(c4ccccc4)CC3)c(Cl)cc21, which Potency is on record?
Answer: inconclusive [inhibitor, partial curve, poor fit]

Question: With COc1ccc(/C=C/C(=O)OCC(=O)N2CCCC2)c(OC)c1 as the compound, how does the Potency read?
Answer: inconclusive [inhibitor, single point]

Question: With O=C(CSc1n[nH]c(=O)[nH]c1=O)c1ccccc1[N+](=O)[O-] as the compound, how does the “activity change, negative = inhibition” value read?
Answer: inactive: -6.67%

Question: Which Potency does the source give for CSc1cccc(NC(=S)N(Cc2ccccc2)Cc2cccnc2)c1 here?
Answer: inconclusive [inhibitor, partial curve]

Question: For CCc1cc(C(=O)N2CCN(S(=O)(=O)c3ccc(Cl)cc3)CC2)sc1C, which Potency is on record?
Answer: active: 9.28 µM

Question: Which Potency does the source give for CCSc1nsc(NC(=O)Nc2cccc(F)c2)n1 here?
Answer: active: 5.86 µM

Question: Which Potency does the source give for C/C(Cl)=C\Cn1c(O)c(N=NC(N)=S)c2cc(Br)ccc21 here?
Answer: active: 10.4 µM

Question: Which Potency does the source give for Cc1ccc(C)c(NC(=O)C2(C)CC3c4ccccc4C2c2ccccc23)c1 (stereo not drawn) here?
Answer: inconclusive [inhibitor, single point]

Question: With CCOc1ccc(CCNC(=O)CCCn2c(=O)c3cccn3c3cccnc32)cc1OCC as the compound, how does the Potency read?
Answer: inconclusive [inhibitor, partial curve]

Question: For Cc1ccc(Cl)cc1NC(=O)[C@@H]1CCC(=O)N1C1OC(=O)c2ccccc21 (stereo partly drawn), which Potency is on record?
Answer: inconclusive [inhibitor, single point]

Question: For CCS(=O)(=O)c1nc(S(=O)(=O)c2ccc(Cl)cc2)c(NCCOC)s1, which Potency is on record?
Answer: inconclusive [inhibitor, partial curve]

Question: For O=C1C2CCN(CC2)C1Cc1ccc(OCc2ccccc2)cc1 (stereo not drawn), which “activity change, negative = inhibition” value is on record?
Answer: inactive: -0.046%

Question: With CC(C)CNC(=O)CCc1c[nH]c2ccccc12 as the compound, how does the Potency read?
Answer: inconclusive [inhibitor, partial curve, poor fit]

Question: With CCC(C)c1ccc(C(CC)NC(=O)C2CCCO2)cc1 (stereo not drawn) as the compound, how does the Potency read?
Answer: inconclusive [inhibitor, partial curve, poor fit]

Question: Which Potency does the source give for O=C(Nc1ncn[nH]1)c1ccc([N+](=O)[O-])cc1[N+](=O)[O-] here?
Answer: inconclusive [inhibitor, single point]

Question: With CCc1ccc(C(=O)COC(=O)C(Cc2ccccc2)NC(=O)C2CCC(C)CC2)cc1 (stereo not drawn) as the compound, how does the Potency read?
Answer: inconclusive [inhibitor, single point]

Question: For CN1CC(c2ccccc2)C(c2ccc(Cl)cc2)=N1 (stereo not drawn), which Potency is on record?
Answer: inconclusive [inhibitor, partial curve, poor fit]

Question: For CC(C)CCNC(=O)NC(=O)COC(=O)c1cc(S(=O)(=O)N2CCOCC2)ccc1N1CCCCC1, which Potency is on record?
Answer: active: 9.28 µM

Question: For COc1ccc(C(=O)N/C(=C\c2cn(S(=O)(=O)N(C)C)c3ccccc23)C(=O)N2CCOCC2)cc1, which Potency is on record?
Answer: inconclusive [inhibitor, partial curve]

Question: Which “activity change, negative = inhibition” value does the source give for Cc1ccc(NC(=O)CSc2nc3ccccc3c3nc4ccccc4n23)cc1 here?
Answer: inactive: -0.158%

Question: Which Potency does the source give for COc1ccc(C(Nc2ccc(S(=O)(=O)N3CCOCC3)cc2)C(=O)NCCC(C)C)cc1OC (stereo not drawn) here?
Answer: inconclusive [inhibitor, partial curve]

Question: With CCN(C(=O)COC(=O)c1cc(=O)c2ccccc2o1)c1c(N)n(Cc2ccccc2)c(=O)[nH]c1=O as the compound, how does the Potency read?
Answer: inconclusive [inhibitor, single point]

Question: Which Potency does the source give for CC(C(=O)Nc1ccccc1)N(C)CCOc1ccc(Br)cc1 (stereo not drawn) here?
Answer: inconclusive [inhibitor, partial curve, poor fit]

Question: With CCn1c(SCCOc2ccc(Cl)cc2)nnc1-c1cccs1 as the compound, how does the Potency read?
Answer: inconclusive [inhibitor, partial curve]

Question: With CCOC(=O)c1c(NC(=O)NC(C)(C)C)sc2c1CCN(C)C2 as the compound, how does the Potency read?
Answer: inconclusive [inhibitor, partial curve, poor fit]

Question: For Cc1ccc(COC(=O)CN2C(=O)NC3(CCCCC3C)C2=O)cc1 (stereo not drawn), which “activity change, negative = inhibition” value is on record?
Answer: inactive: -30.7%

Question: With CC(C)(C)NC(=O)C(c1ccco1)N(Cc1ccc2c(c1)OCO2)C(=O)Cn1nnc2ccccc21 (stereo not drawn) as the compound, how does the Potency read?
Answer: active: 8.28 µM

Question: Which Potency does the source give for CCCCNS(=O)(=O)c1ccc2nc(-c3cccs3)cc(C(=O)NCC(OC)OC)c2c1 here?
Answer: inconclusive [inhibitor, partial curve]

Question: Which Potency does the source give for Cc1sc2ncnc(N3CCC(C(=O)Nc4nnc(CC(C)C)s4)CC3)c2c1C here?
Answer: inconclusive [inhibitor, full curve]

Question: Which “activity change, negative = inhibition” value does the source give for Cc1ccccc1NC(=O)Cn1nnc2ccccc21 here?
Answer: inactive: 23.4%

Question: For COc1ccccc1C(=O)Nc1nnc(-c2ccco2)s1, which “activity change, negative = inhibition” value is on record?
Answer: inactive: 166%

Question: For CC(=O)OCC(=O)[C@H]1CC[C@H]2[C@@H]3CCC4=CC(=O)CC[C@]4(C)[C@H]3CC[C@]12C, which Potency is on record?
Answer: inconclusive [inhibitor, partial curve, poor fit]

Question: With CN(C)c1ccc(/C=N/NC(=O)c2ccccn2)cc1 as the compound, how does the “activity change, negative = inhibition” value read?
Answer: inactive: -43%

Question: For COc1ccc(NC(=O)c2oc3ccccc3c2NC(=O)C2CCCO2)cc1OC (stereo not drawn), which Potency is on record?
Answer: inconclusive [inhibitor, partial curve, poor fit]

Question: Which Potency does the source give for CCc1ccc(-c2cc(C)no2)cc1S(=O)(=O)N1CCN(c2ccc(OC)cc2)CC1 here?
Answer: inconclusive [inhibitor, single point]

Question: Which Potency does the source give for CC(NC1CCCCC1)C(O)C12CC3CC(CC(C3)C1)C2 (stereo not drawn) here?
Answer: active: 7.38 µM

Question: For CC1CCN(CCNC(=O)C2CCCN(S(=O)(=O)c3cccc4nsnc34)C2)CC1 (stereo not drawn), which Potency is on record?
Answer: inconclusive [inhibitor, partial curve]

Question: With O=C(NCCCN1CCOCC1)C1Cc2c(ccc3ccccc23)O1 (stereo not drawn) as the compound, how does the Potency read?
Answer: inconclusive [inhibitor, partial curve]

Question: For C=CC[C@]12CCc3sccc3C1N(c1ccc(C(=O)OCC)cc1)C2=O (stereo partly drawn), which Potency is on record?
Answer: active: 10.4 µM

Question: Which “activity change, negative = inhibition” value does the source give for O=C(c1c(F)cccc1F)N1CCCC(c2nc(-c3ccc(Cl)cc3)no2)C1 (stereo not drawn) here?
Answer: inactive: 14.2%

Question: For CCn1c(SCC(=O)N2CCCc3ccccc32)nnc1-c1c[nH]c2ccccc12, which Potency is on record?
Answer: inconclusive [inhibitor, partial curve]

Question: With Cc1nc2cc(C(F)(F)F)ccc2n1CCNc1nc(-c2cc(Cl)c(N)c(Cl)c2)cs1 as the compound, how does the Potency read?
Answer: inconclusive [inhibitor, single point]

Question: Which “activity change, negative = inhibition” value does the source give for Cc1ccc(NC(=O)CN2CCc3ccccc3C2)cc1S(=O)(=O)N1CCOCC1 here?
Answer: inactive: -8.45%

Question: For O=[N+]([O-])c1ccc2nc(-[n+]3c(-c4ccccc4)cc(-c4ccccc4)cc3-c3ccccc3)[nH]c2c1, which Potency is on record?
Answer: inconclusive [inhibitor, partial curve, poor fit]

Question: Which Potency does the source give for O=C(OCc1ccc([N+](=O)[O-])cc1)c1cc(S(=O)(=O)N2CCCCC2)ccc1N1CCOCC1 here?
Answer: inconclusive [inhibitor, single point]

Question: With Cc1cc(C)c2c(N)c3cccc(C)c3nc2n1 as the compound, how does the Potency read?
Answer: active: 4.15 µM

Question: Which Potency does the source give for CNC(=S)NC1CC2CCCC(C1)N2Cc1ccc(C)cc1 (stereo not drawn) here?
Answer: inconclusive [inhibitor, single point]

Question: With O=C(c1cc(COc2c(F)cccc2F)on1)N1CCN(C2CCCCC2)C(=O)C1 as the compound, how does the Potency read?
Answer: inconclusive [inhibitor, partial curve, poor fit]

Question: For O=C(NCc1ccco1)/C(=C/C=C\c1ccccc1)NC(=O)c1ccc(Br)o1, which Potency is on record?
Answer: inconclusive [inhibitor, single point]

Question: Which “activity change, negative = inhibition” value does the source give for CC(C)n1nnnc1-c1ccc(Cl)cc1 here?
Answer: inactive: -8.84%

Question: With CC1Cc2nc(SCC(=O)Nc3ccc4c(c3)OCO4)n(CCc3ccccc3)c(=O)c2S1 (stereo not drawn) as the compound, how does the Potency read?
Answer: inconclusive [inhibitor, single point]

Question: Which Potency does the source give for CCOC(=O)c1c(C)c(C(=O)Nc2ccc3c(c2)OCCO3)c(C)n1C here?
Answer: inconclusive [inhibitor, single point]

Question: For O=c1[nH]c(C2CCN(S(=O)(=O)c3ccc(C(F)(F)F)cc3)CC2)nc2c1nnn2Cc1ccccc1, which Potency is on record?
Answer: inconclusive [inhibitor, partial curve]

Question: Which Potency does the source give for O=C(CSc1ccc(F)cc1)N1CCC(c2nc3ccccc3s2)CC1 here?
Answer: inconclusive [inhibitor, full curve, poor fit]

Question: With COCCOC(=O)c1c(NC(=O)CNCc2ccco2)sc(C(N)=O)c1C as the compound, how does the Potency read?
Answer: inconclusive [inhibitor, single point]

Question: Which Potency does the source give for N#CCCN(C(=O)COC(=O)c1cccc(S(=O)(=O)N2CCCC2)c1)c1ccc(F)cc1 here?
Answer: inconclusive [inhibitor, partial curve, poor fit]

Question: With Cc1oc(-c2cccc3ccccc23)nc1CN1CCC[C@H]1CO as the compound, how does the Potency read?
Answer: inconclusive [inhibitor, single point]

Question: For CCOc1ccc(C(CC(=O)O)NC(=O)c2ccco2)cc1OC (stereo not drawn), which “activity change, negative = inhibition” value is on record?
Answer: inactive: 5.18%

Question: Which Potency does the source give for CC[C@H](C)[C@@H](C(=O)N1CCNCC1)n1cc([C@@H](N)CC(C)C)nn1 here?
Answer: inconclusive [inhibitor, single point]

Question: With Cc1cc(C)c(C)c(S(=O)(=O)N2CCN(c3ccccn3)CC2)c1C as the compound, how does the “activity change, negative = inhibition” value read?
Answer: inactive: -2.84%

Question: For COc1ccc(CCNC(=S)NCc2ccc(Cl)c(Cl)c2)cc1OC, which Potency is on record?
Answer: inconclusive [inhibitor, single point]

Question: For O=C(/C=C/c1cccs1)N1CCN(c2ccccc2)CC1, which “activity change, negative = inhibition” value is on record?
Answer: inactive: -8.27%

Question: Which “activity change, negative = inhibition” value does the source give for CN(C)Cc1c(O)ccc2c(-c3ccccc3)cc(=O)oc12 here?
Answer: inactive: -8.83%

Question: With CCOC(=O)C1CCCN(c2c(NCCCN(CC)c3cccc(C)c3)c(=O)c2=O)C1 (stereo not drawn) as the compound, how does the Potency read?
Answer: inconclusive [inhibitor, partial curve]
